# Data: paper PMC6919601, “Identification of Plasmodium dipeptidyl aminopeptidase allosteric inhibitors by high throughput screening” (PLoS ONE, 2019)
# The whole screen tested about 110,000 compounds, of which about 230 (0.21%) showed an effect of 50% or more. The list shows a part of the results. Where a SMILES comes first, the peptide text is derived from it.
# Biological target: DPAP1 (Plasmodium falciparum, UniProt Q8IIJ9)
# Assay: primary screen, percent inhibition; read by cleavage of a fluorogenic dipeptide substrate; higher = more effect of the substance
# Set-up: species or system P. falciparum D10 trophozoite lysates; single well
# 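Also: 30 min substrate incubation versus DMSO and 10 µM JCP410 controls.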
# Sequence of DPAP1 (Q8IIJ9 whole entry, looked up): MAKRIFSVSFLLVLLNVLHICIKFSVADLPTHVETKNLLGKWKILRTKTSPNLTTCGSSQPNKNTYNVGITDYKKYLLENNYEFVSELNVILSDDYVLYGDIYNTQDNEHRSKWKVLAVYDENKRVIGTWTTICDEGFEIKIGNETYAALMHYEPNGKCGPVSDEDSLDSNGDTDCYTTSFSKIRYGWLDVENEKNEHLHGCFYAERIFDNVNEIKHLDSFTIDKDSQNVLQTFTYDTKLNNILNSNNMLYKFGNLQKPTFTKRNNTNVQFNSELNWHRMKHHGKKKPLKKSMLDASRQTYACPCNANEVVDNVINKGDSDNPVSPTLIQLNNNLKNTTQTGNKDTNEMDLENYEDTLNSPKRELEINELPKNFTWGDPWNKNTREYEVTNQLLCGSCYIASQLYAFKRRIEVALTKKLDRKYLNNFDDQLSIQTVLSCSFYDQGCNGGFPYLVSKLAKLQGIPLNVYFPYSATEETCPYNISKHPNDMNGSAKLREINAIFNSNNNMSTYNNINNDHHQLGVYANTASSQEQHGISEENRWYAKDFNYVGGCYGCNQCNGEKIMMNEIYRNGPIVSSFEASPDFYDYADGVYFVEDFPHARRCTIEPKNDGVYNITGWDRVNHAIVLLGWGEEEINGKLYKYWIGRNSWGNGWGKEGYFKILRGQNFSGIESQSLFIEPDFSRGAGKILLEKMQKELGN
row,SMILES,% Inhibition @ 10 uM
1,O=C(c1nn2c(C(F)(F)F)cc(-c3cccs3)nc2c1Cl)N1CCCCC1,1.4%
2,Cc1sc(-n2cccc2)c(C(=O)NCc2ccc(Cl)cc2)c1C,4.84%
3,Cc1nc2ccc(S(=O)(=O)N(CC(=O)NCc3ccccn3)Cc3ccccc3)cc2s1,-1.56%
4,Nc1c(C(=O)Nc2ccc(Cl)cc2)sc2nc3c(cc12)CCCC3,0.931%
5,O=[N+]([O-])c1ccc(-c2nc(-c3ccc(Cl)cc3)no2)cc1,-0.591%
6,CC(C)(C)c1ccc(CN2C(=O)COc3cccnc32)cc1,7.74%
7,O=C(COc1ccc(Cl)cc1)Nc1ccccc1NC(=O)COc1ccc(Cl)cc1,-1.38%
8,O=C(CSc1nc2c(c(C(F)(F)F)n1)CCc1ccccc1-2)Nc1cccnc1,-1.72%
9,O=C(O)C12CC3CC(C1)CC(n1ncc(NCCC4=CCCCC4)c(Cl)c1=O)(C3)C2,-4.66%
10,COc1ccccc1NC(=O)COc1cc(Cl)c(Cl)cc1Cl,3.58%
11,N/C(=N\N=C\c1ccco1)c1nonc1N,3.54%
12,O=C(Nc1ccc(Cl)cc1)C1CC(=O)N(c2ccc(Cl)cc2)C1 (stereo not shown),-0.28%
13,NS(=O)(=O)c1cc(O)c2ccccc2c1,3.06%
14,CCOCCCNCc1cc(OC)ccc1OC,0.387%
15,COc1ccc(OC)c(C2CC(=O)N=C(NC(=O)c3ccc(C)cc3)N2)c1 (stereo not shown),0.331%
16,COc1cccc(/C=c2\sc3nc(=O)c(-c4ccccc4)nn3c2=O)c1OC,-5.2%
17,COCCNC(=O)c1cnn(-c2ccccc2)c1-n1cccc1,-5.19%
18,Oc1ccc(CN2CCN(c3ccccc3F)CC2)cc1,-2.7%
19,CSc1sc(C(C)=O)c(N)c1S(=O)(=O)c1ccccc1,4.28%
20,CCN1CCCC(NC(=O)c2scc3c2CCCC3)C1 (stereo not shown),-1.57%
21,c1ccc(C2=NN3C(C2)c2ccccc2OC3c2ccc3c(c2)OCO3)cc1 (stereo not shown),-3.41%
22,CCOC(=O)c1[nH]c(C)c(C(=O)NCCC2=CCCCC2)c1C,-1.66%

row,SMILES,% Inhibition @ 10 uM
1,COc1ccc(NC(=O)c2ccoc2C)cc1OC,-4.71%
2,CN1CCN(C2CC(=O)N(c3ccccc3)C2=O)CC1 (stereo not shown),2.54%
3,Cc1ccsc1CN(Cc1ccco1)C(=O)c1ccc(Br)cc1,-4.67%
4,COc1cc(CCC(=O)NCc2ccc3c(c2)OCO3)cc(OC)c1OC,-6.91%
5,O=C(CN1C(=O)c2cccc3cccc1c23)NCCSC1CCCCC1,-4.16%
6,Cc1ccc(CNC(=O)c2nn(C)c3c2CSc2ccccc2-3)cc1,51.6%
7,COc1cccc2c1cc1c(=O)n(CC(=O)N3CCC(N4CCCCC4)CC3)nc(C)n12,1.68%
8,N#Cc1c(S)nc2c(c1-c1ccco1)CCCC2,11.3%
9,Cc1ccc(N2C(=O)CC(NCc3ccc(F)cc3)C2=O)cc1 (stereo not shown),11.9%
10,COc1ccc(C2OC(=O)CC2C(=O)NCc2ccccc2Cl)cc1OC (stereo not shown),-2.14%
11,COc1cc2c(cc1OC)C(c1ccc(C(F)(F)F)cc1)CC(=O)N2 (stereo not shown),3.57%
12,COc1cc(CN2CCN(Cc3ccccn3)CC2)cc(OC)c1OC,2.54%
13,COCCCN1C(=O)c2ccc(C(=O)O)cc2C1=O,-1.03%
14,O=C(NCc1ccc2c(c1)OCO2)c1cc(O)nc2ccc(S(=O)(=O)N3CCCCCC3)cc12,5.7%
15,COc1cc(C(=O)NCc2ccc(F)cc2)cc(OC)c1OC,0.316%
16,COc1ccc(-n2cnc3cc(C(=O)NC4CCCCC4C)ccc32)cc1 (stereo not shown),2.8%
17,N#CCc1ccc(NC(=O)c2cccnc2)cc1,1.93%
18,COc1ccc(OC)c(NC(=O)CN(c2ccccc2F)S(C)(=O)=O)c1,-1.43%
19,CCCCNC(=O)CNC(=O)CNS(=O)(=O)c1ccc(C)cc1 (HELM PEPTIDE1{[Cc1ccc(S(=O)(=O)[*:2])cc1].G.G.[CCCCN[*:1]]}$$$$V2.0),1.76%
20,CCOc1ccc(NC(=O)c2ccco2)cc1,-3.26%
21,CCC1CCC(N(CC)CCN(C)C)CC1 (stereo not shown),-0.0494%
22,O=C(O)c1cccc(N2C(=O)C(O)=C(c3ccccc3)C2C(=O)c2ccc(Br)cc2)c1 (stereo not shown),1.34%

row,SMILES,% Inhibition @ 10 uM
1,N#CC1=C(N)Oc2c(c(=O)oc3ccccc23)C1c1ccc(C(F)(F)F)cc1 (stereo not shown),7.55%
2,CCN1CCN(C(=O)C2CCN(c3nc4c(C)cc(C)cc4s3)CC2)CC1,-5.19%
3,Cc1ccc(NC(=O)CN2C(=O)c3ccccc3C2=O)cc1,9.02%
4,CN(CC(=O)NC1CCCCCC1)S(=O)(=O)c1c[nH]cn1,3.24%
5,CCOC(=O)N1CCN(C(=O)Cn2cnc3c(nnn3-c3cccc(OC)c3)c2=O)CC1,-2.16%
6,Cc1ccc(C(C)C)c(OCC(=O)Nc2ccc(F)cc2)c1,-1.98%
7,CCOc1ccc(-n2c(SCC(=O)NCc3ccc(C)cc3)nc3nnc(C)c-3c2N)cc1,-0.458%
8,CCCOc1ccc(C(=O)O/N=C(\N)c2ccc(Br)cc2)cc1,2.5%
9,CCN(CC)CCNC(=O)/C(=C/c1cn(CC)c2ccccc12)NC(=O)c1ccco1,-0.0235%
10,O=C(O)CNS(=O)(=O)c1ccccc1,1.66%
11,Clc1ccc(-n2ncc3c(NCCCN4CCOCC4)ncnc32)cc1,-2.84%
12,CCCOc1ccc(C2C3=C(CCCC3=O)OC3=C2C(=O)CCC3)cc1OCC,-3.41%
13,O=S(=O)(c1ccccc1)N1CCN(C/C=C/c2ccccc2)CC1,-1.07%
14,CCOC(=O)/C(C#N)=C\c1ccc(Cl)cc1Cl,-2.87%
15,COC(=O)c1ccc(CSc2nc3ccncc3n2CC(=O)N2CCCC2)cc1,4.83%
16,Cc1ccccc1-c1nc(NC(=O)CSc2ncnc3sc(C)c(C)c23)ns1,-1.33%
17,CCCCCc1ccc(-c2ccc(-c3noc(CC)n3)cc2)cc1,2.54%
18,COc1cc2c(cc1OC)CN(S(=O)(=O)c1ccc(-n3cnnn3)cc1)CC2,-1.07%
19,CC1=CC2=NC(=O)/C(=C\c3ccc(OCc4ccccc4Cl)cc3)C(=N)N2O1,0.317%
20,O=C(NC(NC(=O)c1ccccc1)c1ccc([N+](=O)[O-])cc1)c1ccccc1,-3.92%
